In publication PMC4336329 (PLoS ONE, 2015):
In all, about 310,000 compounds went through this assay and about 2,200 (0.71%) showed an effect of 50% or more. Effects have a minus sign here. Some of the results follow.

Biological target: human ether-à-go-go-related gene (hERG) potassium channel (human, UniProt Q12809)
Experiment: primary screen, population patch clamp on CHO cells stably expressing hERG

human ether-à-go-go-related gene (hERG) potassium channel, sequence (Q12809 whole entry, looked up): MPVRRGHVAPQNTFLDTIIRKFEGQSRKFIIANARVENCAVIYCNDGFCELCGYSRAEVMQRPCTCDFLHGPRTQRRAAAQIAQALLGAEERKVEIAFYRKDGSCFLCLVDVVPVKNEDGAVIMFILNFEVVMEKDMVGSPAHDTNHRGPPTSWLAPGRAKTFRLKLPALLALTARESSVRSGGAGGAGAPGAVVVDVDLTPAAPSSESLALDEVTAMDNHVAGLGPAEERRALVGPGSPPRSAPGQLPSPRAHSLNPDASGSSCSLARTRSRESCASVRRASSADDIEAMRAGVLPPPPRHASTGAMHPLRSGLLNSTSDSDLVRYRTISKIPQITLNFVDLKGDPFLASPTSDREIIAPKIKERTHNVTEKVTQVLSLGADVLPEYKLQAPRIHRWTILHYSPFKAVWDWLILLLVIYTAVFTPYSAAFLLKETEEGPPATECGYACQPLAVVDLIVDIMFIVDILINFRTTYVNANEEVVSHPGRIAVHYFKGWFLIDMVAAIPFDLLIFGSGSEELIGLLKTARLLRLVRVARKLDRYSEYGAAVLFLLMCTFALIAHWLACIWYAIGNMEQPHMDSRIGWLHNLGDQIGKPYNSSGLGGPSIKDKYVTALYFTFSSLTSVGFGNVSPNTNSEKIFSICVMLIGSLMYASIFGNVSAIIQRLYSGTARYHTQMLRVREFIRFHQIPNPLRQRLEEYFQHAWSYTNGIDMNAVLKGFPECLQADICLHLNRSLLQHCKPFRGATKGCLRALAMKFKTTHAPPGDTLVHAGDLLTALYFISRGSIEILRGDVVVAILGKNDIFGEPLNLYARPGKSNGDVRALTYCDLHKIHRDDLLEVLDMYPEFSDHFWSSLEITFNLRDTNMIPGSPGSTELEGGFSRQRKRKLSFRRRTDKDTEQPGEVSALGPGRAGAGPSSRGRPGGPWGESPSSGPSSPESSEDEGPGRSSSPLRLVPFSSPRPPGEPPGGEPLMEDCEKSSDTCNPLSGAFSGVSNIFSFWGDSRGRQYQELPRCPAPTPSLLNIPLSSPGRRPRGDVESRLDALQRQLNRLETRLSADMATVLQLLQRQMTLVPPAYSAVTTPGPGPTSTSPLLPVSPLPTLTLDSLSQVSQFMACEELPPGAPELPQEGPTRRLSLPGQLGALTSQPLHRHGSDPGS

Row | Structure (SMILES) | hERG current change (%, negative = inhibition) at 1uM
1 | COc1ccc(OCCn2ccnc2C)cc1.O=C(O)C(=O)O | 17.9%
2 | COc1cc(CCC(=O)N2CCN(S(=O)(=O)c3ccc(C)c(C)c3)CC2)cc(OC)c1OC | 6.35%
3 | CCOC(=O)c1c(-c2ccc(F)cc2)csc1NC(=O)C1CCCO1 (stereo not drawn) | -1.27%
4 | CCN1CCN(C(=O)Cn2ncc3c([nH]c4ccc(C)cc43)c2=O)CC1 | 6.39%
5 | O=c1[nH]c2ccc(NS(=O)(=O)c3ccc(Cl)cc3)cc2[nH]1 | 14.2%
6 | CC(=O)OC(C)C[N+](C)(C)C.[Cl-] (stereo not drawn) | 12.7%
7 | Cc1ccc(OCC(=O)NNC(=S)NCc2ccccc2)cc1 | 2.87%
8 | COc1ccccc1NC(=O)CSc1ncn(-c2ccccc2)n1 | 9.27%
9 | CSC(=Nc1ccccc1)C(C#N)c1nc2ccccc2[nH]1 (stereo not drawn) | 8.29%
10 | C#CCN(CC=C)C(=O)C1CCC(=O)N(CCCc2ccccc2)C1 (stereo not drawn) | 20.3%
11 | Cc1c(-c2ccccc2)[n+](=O)c(-c2ccc(Cl)cc2)c(C)n1[O-] | 6.06%
12 | CN(C)S(=O)(=O)Oc1cccc(C(=O)Nc2ccc(Cl)c(Cl)c2)c1 | -5.94%
13 | COCCSc1ccccc1C(=O)Nc1ccc([N+](=O)[O-])cc1OC | 5.14%
14 | COCCNC(=S)N/N=C/c1ccc2c(c1)OCCO2 | 13.7%
15 | COc1ccc(S(=O)(=O)N2CCCC2CNC(=O)C(=O)NCc2ccccc2Cl)cc1 (stereo not drawn) | 5.55%
16 | Cc1nc2ccccn2c1C(=O)CSc1ccc(Cl)cc1Cl | -5.22%
17 | CC1CCN(CC(=O)c2cccc(C(F)(F)F)c2)CC1.O=C(O)C(=O)O | 4.2%
18 | Cc1sc2nc(C(C)Sc3n[nH]c(N)n3)[nH]c(=O)c2c1C (stereo not drawn) | 6.76%
19 | C=CCn1c(N)cc(=O)nc1SC(C)C(=O)Nc1ccc(C(=O)OCC)cc1 (stereo not drawn) | 4.12%
20 | O=C(Nc1cccc(Cl)c1)c1ccc(NCC2CCCO2)c([N+](=O)[O-])c1 (stereo not drawn) | 3.6%
21 | O=C(Cn1nc(Cc2cccnc2)c2ccccc2c1=O)Nc1cccnc1Cl | 11%
22 | Cc1ccccc1-c1nc(CS(=O)(=O)CC(=O)NCc2ccccc2)c(C)o1 | 9.34%
23 | CCCN1CCN(C(=O)c2cc(COc3ccc(F)c(F)c3)on2)CC1 | -7.34%

Row | Structure (SMILES) | hERG current change (%, negative = inhibition) at 1uM
24 | O=C(CNc1ccc(F)cc1)N/N=C/c1c(O)ccc2ccccc12 | 6.94%
25 | COc1ccc(-n2ncc3c2CC(C)(C)CC3NC(=O)C2=CC(=O)CC(C)(C)O2)cc1 (stereo not drawn) | -21.5%
26 | O=c1cc([O-])nc(SCc2ccccc2)n1-c1ccc(Cl)cc1.[K+] | 20.8%
27 | CCC(=O)Nc1cccc(-c2cc3ccccc3oc2=O)c1 | -20.7%
28 | COc1ccc(-c2cc(C(F)(F)F)nc(SCC(=O)NCCN3CCOCC3)n2)cc1OC | 3.13%
29 | Cc1cccc(-n2cc(CNCCN3CCOC3=O)c(-c3cccc(F)c3)n2)c1 | 12.9%
30 | CCCCNC(=S)N1CCN(c2ccc(C(C)=O)cc2)CC1 | -11.9%
31 | CCc1ccc(NC(=O)CSc2nc3ccsc3c(=O)n2CCC(=O)O)cc1 | 16.7%
32 | Cc1cccc(-n2ccnc2CN2CCC(CO)(Cc3ccccc3)CC2)c1 | -16.8%
33 | O=C(NCc1ccccc1Cl)NC(=O)c1csc([N+](=O)[O-])c1 | 4.34%
34 | [2H]C(CCOS(N)(=O)=O)c1ccc(C(C)(C)C)cc1 (stereo not drawn) | -0.401%
35 | CN(C)C(=O)C1OC(C)(C)OC1C(=O)N(C)C (stereo not drawn) | 12.1%
36 | O=C(NCC1CCCO1)C1CCC(=O)N1Cc1ccccc1Cl (stereo not drawn) | 3.11%
37 | CCN(CC(=O)Nc1c(F)cccc1F)C(=O)c1ccc(S(=O)(=O)NCc2ccco2)cc1 | 14.3%
38 | COC(=O)c1ccc(CSc2nc3sc4c(c3c(=O)n2C)CCCC4)o1 | 13.1%
39 | Nc1c(N(Cc2ccco2)C(=O)c2ccc(Cl)cc2)c(=O)[nH]c(=O)n1Cc1ccccc1 | 10.9%
40 | c1ccc(-c2noc(CN3CCc4sccc4C3)n2)cc1 | 10.7%
41 | CCCNc1c(NS(=O)(=O)c2ccc(OC)c(OC)c2)c(=O)oc2ccccc12 | -77.2%
42 | COCCC1CCCCN1C(=O)c1cccc(OC2CCN(S(C)(=O)=O)CC2)c1 (stereo not drawn) | 10.4%
43 | N#CC(C#N)=C(N)/C(C#N)=C/c1cc(O)c(O)c(O)c1 | 12.8%
44 | O=C1CCCCCN1CP(=O)(O)CCc1ccccc1 | 3.98%
45 | CS(=O)(=O)N1CCN(c2ccc(NC(=O)C(c3ccccc3)c3ccccc3)cc2)CC1 | 2.73%
